From PubChem BioAssay AID504845 (National Center for Advancing Translational Sciences (NCATS), 2011)
About 150 (0.038%) of roughly 390,000 compounds were called active. The inconclusive results got no clear call from the source; some entries with a clear call stand among them for comparison. Calls follow the shape of the dose curve; as a rule, active = well fitted inhibition curve with a large enough effect; inconclusive = small, poorly fitted or top-dose-only effect; inactive = no such curve, though single readings can be large or run the other way. Potencies beside an inconclusive call are fits to weak or partial responses and may not hold up.

molecular target: Regulator of G-protein signaling 4 (Homo sapiens) (UniProt P49798); experiment: Inhibitors of Regulator of G Protein Signaling (RGS) 4: qHTS; settings: Transcreener GDP fluorescence polarization, RGS4-accelerated GTP hydrolysis; series mostly up to 114 µM; also: nearly all actives have a fitted effect of over 75% in size
Outline: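 MLSMR compounds (23 nl, pin-transferred) preincubated 10 min at room temperature with a 500nM (2x) first reagent, then RGS4 at 900nM (2x) plus Transcreener GDP mix added; fluorescence polarization (620/688 nm) read before and after 90 min at 30 °C.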
% is scaled to controls: 0 for no effect and ±100 for the full control effect; potency is read from the fitted curve at half-maximal effect; tags tell the direction and shape of the fitted curve.

Sequence of UniProt P49798 (P49798 whole entry, looked up): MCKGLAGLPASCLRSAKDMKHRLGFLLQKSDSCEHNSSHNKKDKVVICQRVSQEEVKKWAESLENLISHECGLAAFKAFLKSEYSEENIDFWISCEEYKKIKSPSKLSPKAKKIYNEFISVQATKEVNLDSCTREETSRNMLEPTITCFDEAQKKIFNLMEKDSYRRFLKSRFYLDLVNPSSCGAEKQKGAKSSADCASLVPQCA

SMILES	Potency	activity change, negative = inhibition
CC(OC(=O)c1cccc(S(=O)(=O)N2CCN(C)CC2)c1)C(=O)Nc1ccc(C(N)=O)cc1 (stereo not drawn)	inconclusive: 89.1 µM [inhibitor, single point]	
Cc1ccnc2nc(C(=O)OCC(=O)NC3CCCC(C)C3C)nn12 (stereo not drawn)	inconclusive: 89.1 µM [inhibitor, single point]	
Nc1ccc(N2CCCC2)c(S(=O)(=O)Nc2cccc(C(F)(F)F)c2)c1	inconclusive: 89.1 µM [inhibitor, partial curve, poor fit]	
Cc1ccc(S(=O)(=O)c2nnn3c2nc(NCc2ccc(F)cc2)c2sccc23)cc1C	inconclusive: 79.4 µM [inhibitor, partial curve, poor fit]	
Cc1[nH]c2ccc(C(=O)NCCc3ccccc3Cl)cc2c1C	inactive	
CN(C)C(CNC(=O)CCOc1ccccc1)c1ccco1 (stereo not drawn)	inactive	
Cc1cccc(OCC(=O)NCC2(N3CCN(C)CC3)CCCCC2)c1	inactive	
Oc1ccc2ccccc2c1C=Nc1ccccc1	inconclusive: 50.1 µM [inhibitor, partial curve, poor fit]	
COc1ccc(NC(=O)C(CC(=O)O)C(C)c2ccccc2)cc1 (stereo not drawn)	inconclusive: 17.8 µM [inhibitor, full curve, poor fit]	
CCc1ccc2[nH]c(=O)c(CN(Cc3ccccc3)Cc3nnnn3Cc3ccccc3)cc2c1	inconclusive: 44.7 µM [inhibitor, partial curve, poor fit]	
Cc1nn(Cc2ccc(Cl)cc2)c2sc(C(=O)O)cc12	inconclusive: 100 µM [inhibitor, single point]	
CCOC(=O)CN1NC2(CCCCCC2)NC1=S	inconclusive: 31.6 µM [inhibitor, full curve, poor fit]	
O=C(N/N=C/C=C\c1ccco1)c1ccccn1	inconclusive: 56.2 µM [inhibitor, partial curve, poor fit]	
C=CCNc1nc(Cl)nc(Nc2cc(Cl)ccc2OC)n1	inconclusive: 56.2 µM [inhibitor, partial curve, poor fit]	
Fc1ccccc1SCc1nnc(-c2ccccc2Br)o1	inconclusive: 17.8 µM [inhibitor, full curve, poor fit]	
O=C(CSc1n[nH]c(-c2ccc(S(=O)(=O)N3CCCCC3)cc2)n1)Nc1nccs1	inactive	
CCCn1c(N)c(N(CCOC)C(=O)c2ccccc2)c(=O)[nH]c1=O	inactive	
CCCNC(=O)OCc1cccnc1Sc1ccc(C)cc1	inconclusive: 50.1 µM [inhibitor, partial curve, poor fit]	
Cc1nc(SCC(=O)Nc2ccc(Cl)cc2C(F)(F)F)[nH]c(=O)c1Cc1ccccc1	inconclusive: 89.1 µM [inhibitor, single point]	
Cc1cc(-c2ccccc2)nc2cc(C(=O)Nc3cc(C(F)(F)F)ccc3Cl)nn12	inconclusive: 100 µM [inhibitor, partial curve, poor fit]	
CCC(=O)Nc1ccc(OCc2nc3ccccc3s2)cc1	inconclusive: 50.1 µM [inhibitor, partial curve, poor fit]	
CC(C)(C)c1nnc(SCC(=O)Nc2ccc(N3CCCCC3)cc2)n1N	inactive	
CNC(=O)c1c(NC(=O)CS(=O)(=O)c2ccc(Cl)cc2)sc(C)c1C	inconclusive: 79.4 µM [inhibitor, single point]	

SMILES	Potency	activity change, negative = inhibition
CCOC(=O)c1c(-c2ccccc2)csc1NC(=O)c1cc(-c2cccc(Cl)c2)on1	inconclusive: 50.1 µM [inhibitor, partial curve, poor fit]	
CCCC(c1nnnn1Cc1cccs1)N1CCN(C2CCCC2)CC1 (stereo not drawn)	inconclusive: 79.4 µM [inhibitor, single point]	
O=c1cc(CSc2ccc(Cl)cc2)nc(-c2ccccn2)[nH]1	inactive	
CCOC(=O)Cc1nnc(NC(=O)c2cccc(OCC)c2)s1	inconclusive: 70.8 µM [inhibitor, single point]	
CC(C)N1CCc2c(sc(NC(=S)NC(=O)c3ccccc3)c2C#N)C1	inconclusive: 100 µM [inhibitor, partial curve, poor fit]	
CCCCC(=O)OCC(=O)Nc1cccc(S(=O)(=O)NC2=NCCCCC2)c1	inconclusive: 89.1 µM [inhibitor, partial curve, poor fit]	
CSc1ccccc1C(=O)NC(C)c1ccc(-n2ccnc2)cc1 (stereo not drawn)	inconclusive: 100 µM [inhibitor, single point]	
O=C(CSc1nc(-c2ccccc2)nc2c1Cc1ccccc1O2)Nc1ccc(C(=O)O)cc1	inconclusive: 10 µM [inhibitor, full curve, poor fit]	
c1coc(-c2nc(-c3ccncc3)no2)c1	inactive	
COc1ccccc1N1C(=O)CC(Sc2n[nH]c(-c3cccc(C)c3)n2)C1=O (stereo not drawn)	inconclusive: 56.2 µM [inhibitor, partial curve, poor fit]	
CNc1c(N)n(Cc2ccccc2)c(=O)[nH]c1=O	inconclusive: 100 µM [inhibitor, single point]	
COc1ccc(NC(=S)Nc2cccc(C(C)=O)c2)cc1OC	inconclusive: 50.1 µM [inhibitor, partial curve, poor fit]	
COc1ccc(Cn2nnnc2C(c2ccc(C)cc2)N2CCN(C3CCCC3)CC2)cc1 (stereo not drawn)	inactive	
CCc1cccc(NS(=O)(=O)c2ccc3c(c2)N(C)CCO3)c1	inactive	
COc1ccc(Br)cc1/C=N/NC(=O)c1ccco1	inactive	
C=CCC1NCCc2c(Br)cccc21 (stereo not drawn)	inactive	
Fc1ccc(-c2cc(C(F)(F)F)nc(NCc3ccccc3)n2)cc1	inactive	
CCN(Cc1cnn(C)c1)Cc1nc(C2(c3ccc(C)cc3)CCCC2)no1	inconclusive: 89.1 µM [inhibitor, single point]	
COc1ccccc1-c1nnc2sc(COc3ccc(Cl)cc3Cl)nn12	inconclusive: 39.8 µM [inhibitor, partial curve, poor fit]	
O=C(CC(Nc1ccccc1Cl)C(=O)O)c1ccccc1 (stereo not drawn)	inconclusive: 28.2 µM [inhibitor, full curve, poor fit]	
CCn1c(=O)n(-c2cccc(Cl)c2)c(=O)c2sc3ccccc3c21	inactive	
O=C(c1cnc(N2CCCCC2)c2ccccc12)N1CCN(c2ccc(Cl)cc2)CC1	inactive	
O=C1OC(Nc2ccc(F)cc2F)c2ccccc21 (stereo not drawn)		inactive: 3.83% [at 11.4 µM]

SMILES	Potency	activity change, negative = inhibition
CCc1ccc(NC(=O)C2CCN(S(=O)(=O)c3c(C)noc3/C=C/c3ccco3)CC2)cc1	inconclusive: 44.7 µM [inhibitor, partial curve, poor fit]	
Cc1ccc(C(=O)O)cc1NC(=S)NC(=O)c1ccc(-c2ccccc2)cc1	inconclusive: 56.2 µM [inhibitor, partial curve, poor fit]	
Cc1cnn(C(=S)NCCc2ccccc2)c1	inconclusive: 79.4 µM [inhibitor, partial curve, poor fit]	
CSc1ccc(CNC(=O)CN2C(=O)C3CCCCN3c3ccc(C(=O)N4CCCC4)cc32)cc1 (stereo not drawn)	inactive	
O=C1c2cccc3cccc(c23)C(=O)N1c1ccc2ncccc2c1	inconclusive: 50.1 µM [inhibitor, partial curve, poor fit]	
COc1ccc(CC(=O)Nc2nc(C(C)(C)C)cs2)cc1	inactive	
Cn1nc(C(F)(F)F)c(-c2cccc(C(F)(F)F)c2)c1NC(=O)CSCC(=O)O	inactive	
N#C/C(=C\c1ccccc1)C(=O)NNS(=O)(=O)c1ccc(Br)cc1	inconclusive: 70.8 µM [inhibitor, partial curve, poor fit]	
COc1ccc(Cn2ccc3nc(C)c(C(=O)N4CCN(c5ccccc5F)CC4)cc3c2=O)cc1	inactive	
CN1CCN(c2ccc(S(=O)(=O)N3CCCCC3)cc2NC(=O)/C=C/c2ccc(OC(F)F)cc2)CC1	inconclusive: 89.1 µM [inhibitor, single point]	
COc1ccc(C(=O)NCc2nnc(SCCOc3ccccc3)n2C)cc1	inconclusive: 17.8 µM [inhibitor, full curve, poor fit]	
COc1ccc(C(=O)OCC[N+]2(C)CCOCC2)cc1	inconclusive: 100 µM [inhibitor, single point]	
Nc1cccc2c1C(=O)N(C(=O)/C=C/c1ccc(F)cc1)C2=O	inconclusive: 50.1 µM [inhibitor, partial curve, poor fit]	
COc1ccc(/C=C/C(=O)Nc2ccccc2)cc1OC	inactive	
Cc1cccc(S(=O)(=O)c2c(N)n(/N=C/c3ccco3)c3nc4ccccc4nc23)c1	inconclusive: 79.4 µM [inhibitor, partial curve, poor fit]	
COCCCNC(=O)C1c2ccccc2Oc2ccccc21	inconclusive: 70.8 µM [inhibitor, single point]	
CCN(CC)C(=O)c1sc2c(c1C)c(=O)n(-c1ccc(C)c(C)c1)c(=O)n2Cc1cccc(Cl)c1	inactive	
O=C1c2ccccc2NC(c2ccc(Cl)cc2Cl)N1O (stereo not drawn)	inactive	
C=C1CC(COc2ccc3c(C)c(Cl)c(=O)oc3c2)(c2ccccc2)OC1=O (stereo not drawn)	inconclusive: 89.1 µM [inhibitor, single point]	
Cc1ccc2cccc(SCC(=O)NCc3ccco3)c2n1	inactive	
O=C1/C(=C/c2ccc([N+](=O)[O-])cc2)Oc2cc(O)ccc21	inconclusive: 79.4 µM [inhibitor, single point]	
CN(C)/C=C1/C=C(c2ccccc2)OC1=O	inconclusive: 79.4 µM [inhibitor, partial curve, poor fit]	
